Experimental data from a collection of fitness landscapes (doi:10.1016/j.celrep.2020.107928).
In all, about 81,000 sequences were measured (“one-hybrid fitness for binding NBS DNA”: median about -0.1, highest 2% from about 0.36 on). The list shows a part of the results.

B1: Caulobacter ParB omega fusion; a variant is named by its letters at X, in order, B8GW30 (parent)
chain: MESVVVGEPGMSEGRRGLGRGLSALLGEVDAAPAQAPGEQLGGSREAPIEILQRNPDQPRRTFREEDLEDLSNSIREKGVLQPILVRPSPDTAGEYQIVAGERAWRAAQRAGLKTVPIMVRELDDLAVLEIGIIENVQRADLNVLEEALSYKVLMEKFERTQENIAQTIGKSXSHVANXMRLLXLPDEVQSYLVSGELTAXHARAIAAAADPVALAKQIIEGGLSVRETEALARKAPNLSAGKSKGGRPPRVKDTDTQALESDLSSVLGLDVSIDHRGSTGTLTITYATLEQLDDLCNRLTRGI

Variants of: B1
Test: one-hybrid fitness for binding NBS DNA (the Noc-binding site; scaled: cognate 1, non-cognate 0); higher = stronger binding
Details: with NBS DNA site
Procedure, shortened: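 Selection: bacterial one-hybrid in E. coli USO, HIS3 reporter with the site 19 bp from the promoter, 48 hours at 37°C on M9-minus-histidine plus 0.1 mM IPTG and 5 mM 3-AT. Libraries were Caulobacter ParB with four randomised specificity codons, sequenced on Illumina before and after selection. Fitness is the rescaled log change in variant-to-wild-type read ratio, anchored to the cognate and non-cognate sites.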

one-hybrid fitness for binding NBS DNA, 0.439:
RMSS

one-hybrid fitness for binding NBS DNA, 0.274:
RAKY

one-hybrid fitness for binding NBS DNA, 0.468:
RQHS

one-hybrid fitness for binding NBS DNA, 0.226:
LQKR

one-hybrid fitness for binding NBS DNA, 0.503:
QCYT

one-hybrid fitness for binding NBS DNA, 0.562:
QTRM

one-hybrid fitness for binding NBS DNA, 0.292:
RICS

one-hybrid fitness for binding NBS DNA, 0.419:
QHHT

one-hybrid fitness for binding NBS DNA, 0.28:
RIVR

one-hybrid fitness for binding NBS DNA, 0.204:
TSST

one-hybrid fitness for binding NBS DNA, 0.354:
TRAR

one-hybrid fitness for binding NBS DNA, 0.385:
QSGT

one-hybrid fitness for binding NBS DNA, 0.32:
QRHE

one-hybrid fitness for binding NBS DNA, 0.525:
QCRV

one-hybrid fitness for binding NBS DNA, ≤ 0.2:
ATPT
VRGH
KFGW
DGTL
SQVR
SYTD
ADLG
LWAG
ASCS
STCM
VPAM
ADVC
HLKS
VDSA
HMPW
WISR
VTYT
AMPP
MSHV
EVLY
AAVV
LFPI
YERG
AWCL
QKAG
RMGH
YWCL
RLLW
PSIS
NNGF
DPTN
GKCT
KGWD
QWGS
SPIV
GHYY
FGFG
TNVP
ANRV
GPIL
QWRP
KEDV
QYCY
WLMM
AKGT
HRIA
YSVL
TFCC
PPSE
YITS
CLRA
NLCR
QEKK
DYLL
LRKE
TSYY
GVER
KGRF
AWHS
SRHN
QRIP
SFQA
SSTI
MSTY
PRRH
TENR
RQTP
YMRM
GTES
RVTP
SYAL
NILV
FKPP
RECK
GISW
RHAE
RGAR
RVMV
HIFW
STML
VAFI
RFLV
RAFM
QMAP
SQSY
YHVC
SVFW
LRKL
CRLD
KPLM
YGGS
CPEV
NVMT
RKFF
NDHR
PPED
FISY
YTSV
YMKG
RSEF
SYKG
PPHN
MQVV
SHWD
LMYG
TPAP
YNKC
QYWY
YRAF
LSMC
PGPF
MGFG
AHCC
AAFG
LRMM
YLNR
GLLA
VGRR
TPKK
QAVF
HPAT
CGAD
VFCG
QDLS
GEQT
DTNT
ENKQ
RAKF
GCPD
IVPF
NKQS
APNS
LLQD
QGIM
GWDK
KISV
MSSE
MDFC
HRTS
FKSY
YVSR
RRLI
HPLG
RPSW
IAHT
AICS
GMMW
KLEL
MIPV
RLCW
GNES
VDKV
PFGC
FMKW
AKLC
ANAW
APHV
FEPF
IKNS
LPDG
QHQD
MKPR
QNQY
HYKC
KLFG
KLQG
EAQF
LDSV
RCTK
QRWE
QKCK
HLRM
YKQP
NFHC
LWMG
HTIV
YKDC
ENTE
IMAS
QREW
TIIR
ALYW
WPHT
PCAD
ALWS
QNKA
LKHN
KEQS
TACT
QHLP
LSNY
WVGK
MHLT
GRNA
WHGM
IHID
YMPF
HSKP
SGPT
FGTW
PVTA
AYNT
YFEV
PDKK
VLDN
TMFL
NRWL
CFTR
ENMV
DHRQ
GWCG
GTEE
PESD
LVGE
VRSS
LMRL
TIRH
NELR
PMSY
AQKQ
ALKG
ILTT
YAGG
ENYK
EHTT
QMSE
HAWT
FRFC
CQHW
YFLR
KMLK
GPHT
RKTD
MHPF
IQYE
RSIA
PWAL
KLNP
HARG
KCKP
AYAN
LDIY
THCG
DPCR
SHKI
QFLT
KMDS
YPCG
NHAF
LRNV
NRGA
WLAG
GRGL
IGNN
VHMY
VEAQ
VGKT
QQHV
APAI
VFVR
KVIT
QFGG
RFYW
HWQF
QYHV
VVAC
NQQV
QPKD
QLSE
IIYF
ASYG
YRGC
CDAS
LWDC
LRTE
GLGP
EKES
NLGV
FRGE
MIPG
IVFG
TAEL
QPHR
PLWR
PPRA
QGNY
MIYS
LHYR
QVTK
PGGV
KNRS
QGQG
